Results taken from PMC6406603, “Host-Cell Type Dependent Features of Recombinant Human Aquaporin-4 Orthogonal Arrays of Particles—New Insights for Structural and Functional Studies” (Cells, 2019).

Target: the molecule itself
Test: native gel or EMSA; 2D BN/SDS-PAGE: 3-9% gradient blue native PAGE then 13% SDS-PAGE, AQP4 immunoblot; whole cells lysed in BN buffer (1% DDM, 12 mM NaCl, 500 mM 6-aminohexanoic acid, 20 mM Bis-Tris pH 7.0)

B1: human M23-AQP4 expressed in Sf9 cells (natural protein)
chain: not shown
notes: also called AQP4-M23; Sf9-M23-AQP4; source: Sf9, baculovirus (Bac-to-Bac), in DDM extract of whole cells or of plasma membrane vesicles
stoichiometry N: 4
